Test results as given in the supplement of paper PMC12067230.
The data scatter; read single values as rough.

Experiment: amyloid nucleation score relative to library mode (yeast Sup35 reporter selection) (log enrichment difference); higher = more amyloid nucleation; sequences are the first 22 residues of the Bri2 peptide extended by up to 12 random residues
Details: random library (experiment): 1;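 active = nucleation score significantly above 0 at FDR 0.05; inactive = not significantly above 0 or absent from output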
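Note: [psi-pin-] Saccharomyces cerevisiae expressing SupN fusions, induced by 100 µM Cu2SO4, selected 7 d at 30 °C without adenine and uracil, scored by deep sequencing of output versus input.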

Row | Sequence | amyloid nucleation score
1 | EASNCFAIRHFENKFAVETLICLTTLCGGLHKNG | inactive
2 | EASNCFAIRHFENKFAVETLICAMRQTPSQVLDP | inactive
3 | EASNCFAIRHFENKFAVETLICTELT | inactive
4 | EASNCFAIRHFENKFAVETLICGEQWDVVTLGPG | 1.34
5 | EASNCFAIRHFENKFAVETLICTCRSKVWVVFWW | inactive
6 | EASNCFAIRHFENKFAVETLICPGLYSLGAGRTK | inactive
7 | EASNCFAIRHFENKFAVETLICCYMTYWQ | 3.33
8 | EASNCFAIRHFENKFAVETLICPRPA | 0.435
9 | EASNCFAIRHFENKFAVETLICACRFE | 3.68
10 | EASNCFAIRHFENKFAVETLICLPA | inactive
11 | EASNCFAIRHFENKFAVETLICVGYGEHCRDKR | inactive
12 | EASNCFAIRHFENKFAVETLICFPKVIHEYVTLR | inactive
13 | EASNCFAIRHFENKFAVETLICVTIMFTLFVKGG | inactive
14 | EASNCFAIRHFENKFAVETLICTLPDIHLSLHTC | inactive
15 | EASNCFAIRHFENKFAVETLICRHAVCASTRAYA | inactive
16 | EASNCFAIRHFENKFAVETLICGARRTSSFRGNP | -0.203
17 | EASNCFAIRHFENKFAVETLICRDQWCFCQFTPS | inactive
18 | EASNCFAIRHFENKFAVETLICRAPTGCAEWGCA | inactive
19 | EASNCFAIRHFENKFAVETLICMRRRRTCNWLTT | -0.0385
20 | EASNCFAIRHFENKFAVETLICRPRCGPFTDLWR | 1.47
21 | EASNCFAIRHFENKFAVETLICWDTARTARGDVC | inactive
22 | EASNCFAIRHFENKFAVETLICFP | 1.38
23 | EASNCFAIRHFENKFAVETLICARQAALRNRGAW | inactive
24 | EASNCFAIRHFENKFAVETLICTELLYYSCAYRK | 3.25
25 | EASNCFAIRHFENKFAVETLICLQM | 7.3

Row | Sequence | amyloid nucleation score
26 | EASNCFAIRHFENKFAVETLICTLWWWWVQTMEW | inactive
27 | EASNCFAIRHFENKFAVETLICVSGHAYEHYRGS | inactive
28 | EASNCFAIRHFENKFAVETLICASPQLQRSNQG | inactive
29 | EASNCFAIRHFENKFAVETLICRARKVR | inactive
30 | EASNCFAIRHFENKFAVETLICLLPHRMVMRVDR | inactive
31 | EASNCFAIRHFENKFAVETLICRKVRSIQGYL | 2.16
32 | EASNCFAIRHFENKFAVETLICLGWSMGGKRSTR | 6.27
33 | EASNCFAIRHFENKFAVETLICGEVCEPRYSEAS | inactive
34 | EASNCFAIRHFENKFAVETLICEFSRGMGLVPRM | 0.00985
35 | EASNCFAIRHFENKFAVETLICVGDGSTSWERRL | inactive
36 | EASNCFAIRHFENKFAVETLICMEDEGSTVIAYG | inactive
37 | EASNCFAIRHFENKFAVETLICCHKMLWITGCRW | inactive
38 | EASNCFAIRHFENKFAVETLICAFGACWGVLRDG | 6.12
39 | EASNCFAIRHFENKFAVETLICTSLGVIVHFKWW | inactive
40 | EASNCFAIRHFENKFAVETLICVGSALLTHATLP | inactive
41 | EASNCFAIRHFENKFAVETLICQYCCQSNQQKYM | 4.95
42 | EASNCFAIRHFENKFAVETLICGCSKCEIDGCKT | 6.69
43 | EASNCFAIRHFENKFAVETLICRRQA | inactive
44 | EASNCFAIRHFENKFAVETLICDFLKETSISMCA | inactive
45 | EASNCFAIRHFENKFAVETLICRSW | inactive
46 | EASNCFAIRHFENKFAVETLICVGKCLI | inactive
47 | EASNCFAIRHFENKFAVETLICIVLNQSLRRDTL | 3.68
48 | EASNCFAIRHFENKFAVETLICLME | inactive
49 | EASNCFAIRHFENKFAVETLICFGHVRFG | 7.79

Same assay, conditions: random library (experiment): 2

Row | Sequence | amyloid nucleation score
50 | EASNCFAIRHFENKFAVETLICYRYKILTLELFR | inactive
51 | EASNCFAIRHFENKFAVETLICMSVRLCNPRTMW | 4.47
52 | EASNCFAIRHFENKFAVETLICAFGIGPVDWDIW | inactive
53 | EASNCFAIRHFENKFAVETLICGCLVNWFYRPRR | 8.23
54 | EASNCFAIRHFENKFAVETLICVQVVW | 1.09
55 | EASNCFAIRHFENKFAVETLICIDCVCQHVAMCH | inactive
56 | EASNCFAIRHFENKFAVETLICYVRRIEVCCKV | -0.336
57 | EASNCFAIRHFENKFAVETLICRFHRAIRFMVKR | inactive
58 | EASNCFAIRHFENKFAVETLICWKTSDILDGRSV | inactive
59 | EASNCFAIRHFENKFAVETLICKRGLN | inactive
60 | EASNCFAIRHFENKFAVETLICRKCIFSAISVDV | inactive
61 | EASNCFAIRHFENKFAVETLICFFFSGWE | 7.42
62 | EASNCFAIRHFENKFAVETLICHEKANL | inactive
63 | EASNCFAIRHFENKFAVETLICKTVGCSI | inactive
64 | EASNCFAIRHFENKFAVETLICLSLQEILVCSCI | 5.18
65 | EASNCFAIRHFENKFAVETLICLFNGVR | inactive
66 | EASNCFAIRHFENKFAVETLICLRCTRCSYCSGF | 2.16
67 | EASNCFAIRHFENKFAVETLICVLDFRMYLLIHE | 0
68 | EASNCFAIRHFENKFAVETLICVVLCFRNIWVCE | inactive
69 | EASNCFAIRHFENKFAVETLICCCYYFSRCVMVV | inactive
70 | EASNCFAIRHFENKFAVETLICTEFDLLEIFNKN | 3.61

Row | Sequence | amyloid nucleation score
71 | EASNCFAIRHFENKFAVETLICKSFKTV | inactive
72 | EASNCFAIRHFENKFAVETLICLMIVGNVSVRVN | 4.05
73 | EASNCFAIRHFENKFAVETLICMMVFDVNIRRKM | inactive
74 | EASNCFAIRHFENKFAVETLICVYTFIVVMVGRC | inactive
75 | EASNCFAIRHFENKFAVETLICDSTMKEAARGST | 4.05
76 | EASNCFAIRHFENKFAVETLICAGAM | inactive
77 | EASNCFAIRHFENKFAVETLICLTFMLSPQTTDN | 7.17
78 | EASNCFAIRHFENKFAVETLICLVALNARNSQSR | 4.92
79 | EASNCFAIRHFENKFAVETLICLLGIVILSFFEW | inactive
80 | EASNCFAIRHFENKFAVETLICIWEWKCRSGMGV | -0.104
81 | EASNCFAIRHFENKFAVETLICRLERLECLKCT | inactive
82 | EASNCFAIRHFENKFAVETLICKSNELGICAIS | 5.61
83 | EASNCFAIRHFENKFAVETLICNVYRSIIRTLGV | inactive
84 | EASNCFAIRHFENKFAVETLICLILLPRWIKLRN | -0.0198
85 | EASNCFAIRHFENKFAVETLICMHLPEVELGQWW | 1.06
86 | EASNCFAIRHFENKFAVETLICRLSMYFGLHIVD | 4.86
87 | EASNCFAIRHFENKFAVETLICRWCPPWYPPSSC | inactive
88 | EASNCFAIRHFENKFAVETLICLNRDVFVQGRNI | 4.5
89 | EASNCFAIRHFENKFAVETLICISIFSKSGVRLD | 2.38
90 | EASNCFAIRHFENKFAVETLICQCGAIPCRWLGQ | 6.7

Same assay, conditions: random library (experiment): 3

Row | Sequence | amyloid nucleation score
91 | EASNCFAIRHFENKFAVETLICKGQYKGIGIYNV | inactive
92 | EASNCFAIRHFENKFAVETLICDSSTHNNFGSTS | 4.82
93 | EASNCFAIRHFENKFAVETLICKTVYRTTSRQFT | 1.86
94 | EASNCFAIRHFENKFAVETLICDE | inactive
95 | EASNCFAIRHFENKFAVETLICDIKCLLRPLQDC | inactive
96 | EASNCFAIRHFENKFAVETLICRVNSSN | inactive
97 | EASNCFAIRHFENKFAVETLICAKKVRRMTTWEG | 1.9
98 | EASNCFAIRHFENKFAVETLICVVLVARRTDQFG | inactive
99 | EASNCFAIRHFENKFAVETLICDFHFVCLASTCG | inactive
100 | EASNCFAIRHFENKFAVETLICFHNFNTFDVTTH | 3.45
101 | EASNCFAIRHFENKFAVETLICANDVRMLAIRHV | 2.78
102 | EASNCFAIRHFENKFAVETLICWDRMICRFKRKL | inactive
103 | EASNCFAIRHFENKFAVETLICGKWLVGIICLRR | inactive
104 | EASNCFAIRHFENKFAVETLICIWDVWVYRVGLG | inactive
105 | EASNCFAIRHFENKFAVETLICVTTDSGVSIMYN | inactive
106 | EASNCFAIRHFENKFAVETLICLRCTK | inactive
107 | EASNCFAIRHFENKFAVETLICLLWGCWRGMSLG | inactive
108 | EASNCFAIRHFENKFAVETLICCLRFVSTKMRRE | inactive
109 | EASNCFAIRHFENKFAVETLICTVDVVASGCDDR | inactive
110 | EASNCFAIRHFENKFAVETLICNWFMSDLLNMSR | 3.83
111 | EASNCFAIRHFENKFAVETLICRARERMRGILDR | inactive
112 | EASNCFAIRHFENKFAVETLICGACGTNTALFRM | inactive
113 | EASNCFAIRHFENKFAVETLICFDPSTSATEPEG | inactive
114 | EASNCFAIRHFENKFAVETLICTPGRMIRKGV | inactive
115 | EASNCFAIRHFENKFAVETLICVLIDYNFKAGKC | inactive
116 | EASNCFAIRHFENKFAVETLICLVVDKTARLAGE | 5.44
117 | EASNCFAIRHFENKFAVETLICLHKTWASVYCGS | inactive
118 | EASNCFAIRHFENKFAVETLICDKSTVEGRKIEF | inactive
119 | EASNCFAIRHFENKFAVETLICRITSDTPIRRKV | inactive
